# From PubChem BioAssay AID2147 (National Center for Advancing Translational Sciences (NCATS), 2009)
# “And” between values parts separate entries of the source, which are not always exact repeats. Equal entries are not always repeated. In all, about 230,000 compounds went through this assay and about 3,600 (1.6%) were called active. Inconclusive results, whose numbers are uncertain, are shown with a selection of clear calls. Calls come from the whole dose curve; as a rule, active = well fitted inhibition curve with a large enough effect (not every such curve was filed as active); inconclusive = small, poorly fitted or top-dose-only effect, or another doubt; inactive = no such curve, though single readings can be large or run the other way. A potency beside an inconclusive call is a rough fit, not a confirmed value.
# Biological target: Lysine-specific demethylase 4E (Homo sapiens) (UniProt B2RXH2)
# Assay: qHTS Assay for Inhibitors of Human Jumonji Domain Containing 2E (JMJD2E)
# Conditions: JMJD2E catalytic domain, FDH-coupled NADH fluorescence (FDH is formaldehyde dehydrogenase); series mostly up to 57.1 µM; activity change, negative = inhibition: at the top concentration
# Note: nearly all actives have a fitted effect of over 50% in size.
# Potency is the fitted concentration of half-maximal effect; tags give direction and shape of the fitted curve.
# 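Throughout, for activity change, negative = inhibition: 0% = wells with enzyme and -100% = buffer wells without enzyme.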
# Sequence of UniProt B2RXH2 (B2RXH2 whole entry, looked up, the tested form may be a part): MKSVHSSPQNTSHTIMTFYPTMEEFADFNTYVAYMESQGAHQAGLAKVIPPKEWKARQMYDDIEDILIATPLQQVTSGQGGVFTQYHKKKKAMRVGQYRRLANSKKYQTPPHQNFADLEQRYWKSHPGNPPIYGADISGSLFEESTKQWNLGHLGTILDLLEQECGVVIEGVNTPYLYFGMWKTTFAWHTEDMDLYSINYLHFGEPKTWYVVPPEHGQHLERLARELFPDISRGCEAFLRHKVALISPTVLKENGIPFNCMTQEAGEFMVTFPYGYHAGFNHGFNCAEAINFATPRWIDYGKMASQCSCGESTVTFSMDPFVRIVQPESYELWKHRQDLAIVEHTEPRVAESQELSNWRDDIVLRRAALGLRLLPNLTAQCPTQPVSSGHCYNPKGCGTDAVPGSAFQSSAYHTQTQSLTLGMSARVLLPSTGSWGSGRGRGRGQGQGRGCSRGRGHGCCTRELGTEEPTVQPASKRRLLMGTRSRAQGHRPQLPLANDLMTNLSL
Compound,Potency,"activity change, negative = inhibition"
CN(C)c1ccc(-c2n[nH]c(=S)n2-c2ccccc2)cc1,"inconclusive: 14.1 µM [inhibitor, partial curve]",
Cc1ccc2nc(SCC(=O)c3ccc(O)cc3O)[nH]c2c1,,inactive: 17.9%
C=CCNc1nc(-c2cc3ccccc3o2)cs1,"inconclusive: 28.2 µM [inhibitor, single point]",
Cn1c(=O)c(N)c2c3c(c(Br)ccc31)C(=O)c1ccccc1-2,active: 25.1 µM,
COC(=O)C(N)Cc1ccc(O)c(O)c1 (stereo not given),active: 14.1 µM,
CCOC(=O)C1CCN(c2nc(-c3ccc(Br)cc3)nc3ccccc23)CC1,"inconclusive: 39.8 µM [inhibitor, single point]",
CSc1nc(-c2ccccc2)cc(C(F)(F)F)c1C#N,"inconclusive: 25.1 µM [inhibitor, partial curve]",
Cn1c(SCc2nn[nH]n2)nc2c1c(=O)n(Cc1ccccc1Cl)c(=O)n2C,"inconclusive: 25.1 µM [inhibitor, partial curve]",
Fc1ccc(-c2nnc3ccc(N4CCc5ccccc5C4)nn23)cc1,"inconclusive: 28.2 µM [inhibitor, single point]",
CC(=O)N1CCC2(CC1)C/C(=N\NC(=S)Nc1ccc(C)cc1)c1cc(O)ccc1O2,"inconclusive: 31.6 µM [inhibitor, partial curve]",
CC(C)CC(=O)NC(NC(=S)Nc1sc2c(c1C#N)CCCC2)C(Cl)(Cl)Cl (stereo not given),,inactive: 5.66%
O=C(N/N=C/c1nn(-c2ccccc2)cc1-c1ccccc1)c1ccncc1,"inconclusive: 39.8 µM [inhibitor, single point]",
CC(=O)Nc1nc(CCC(C)C)cc2c1c(=O)oc1ccccc12,"inconclusive: 11.2 µM [inhibitor, partial curve]",
CCN(Cc1cc2ccccc2[nH]c1=O)C(=O)C(C)C,"inconclusive: 39.8 µM [inhibitor, single point]",
CC(=O)N1N=C(c2ccncc2)OC12CCCCC2,"inconclusive: 31.6 µM [inhibitor, partial curve]",
Cc1cc(=O)oc2c(O)c(O)ccc12,active: 2.24 µM,
COC(=O)c1cccc(COC(=O)c2ccc(N(C)C)cc2)c1,"inconclusive: 39.8 µM [inhibitor, single point]",
COc1ccc(-c2nnc(SCC#CCO)o2)cc1OC,,inactive: -17.9%
COC(=O)CN1C(=O)S/C(=C/c2cc(C)n(C)c2C)C1=O,,inactive: 0.302%
CC(C)[C@H](NC(=O)c1ccccc1Cl)C(=O)Nc1nc(-c2ccccn2)cs1,"inconclusive: 31.6 µM [inhibitor, single point]",
COc1ccc(-c2cc(C(=O)Nc3c(Cl)cc(Cl)cc3Cl)c3ccccc3n2)cc1OC,"inconclusive: 14.1 µM [inhibitor, partial curve]",
Cc1c(NC(=O)OCCNC(=O)Nc2ccccc2)sc(=S)n1C,,inactive: -2.57%
COc1cc(C2Nc3ccc4ncccc4c3C3=C2C(=O)CC(C)(C)C3)cc(OC)c1O (stereo not given),active: 7.94 µM,

Compound,Potency,"activity change, negative = inhibition"
Cc1oc(C(N)=O)nc1-c1ccccc1,"inconclusive: 28.2 µM [inhibitor, partial curve]",
COc1cccc(CN2CCSCC2)c1,"inconclusive: 31.6 µM [inhibitor, single point]",
c1cnc(N2CCN(c3nc4ccccc4n4cnnc34)CC2)nc1,"inconclusive: 39.8 µM [inhibitor, single point]",
O=C(Cc1ccc(Br)cc1)OCC(=O)c1ccc2c(c1)OCCO2,"inconclusive: 28.2 µM [inhibitor, partial curve]",
CC(=O)Nc1cnc2ccccc2n1,"inconclusive: 22.4 µM [inhibitor, single point]",
CC(=O)c1cc2c(s1)-c1cc(F)ccc1OC2,"inconclusive: 35.5 µM [inhibitor, partial curve]",
Cc1c(Cl)cccc1NC(=O)c1nc(C)n(-c2cc(OC(C)C)c(Cl)cc2Cl)n1,"inconclusive: 39.8 µM [inhibitor, single point]",
CCOC(=O)c1sc(C)c2c(=O)n(Cc3ccc(Cl)cc3)c(C)nc12,"inconclusive: 39.8 µM [inhibitor, single point]",
COc1ccc(-c2csc(CCN3N=C(C)CC3=O)n2)cc1,"inconclusive: 39.8 µM [inhibitor, single point]",
CCN(CC)c1ccc(C2C3CCCCC3(O)CCN2C(=O)c2cccs2)cc1 (stereo not given),,inactive: -3.78%
CCOC(=O)N1CCN(c2nc(-c3cccc(OC)c3)cc(C(F)(F)F)n2)CC1,"inconclusive: 35.5 µM [inhibitor, single point]",
O=C(OCc1cc(=O)n2c(n1)sc1ccccc12)c1cccc(O)c1,"inconclusive: 39.8 µM [inhibitor, single point]",
COc1ccc(Cl)cc1N(CC(=O)Nc1ccc2c(c1)OCO2)S(C)(=O)=O,,inactive: 0.304%
Cc1ccc(C2=NC(C(F)(F)F)(C(F)(F)F)c3c(n(-c4ccc(F)cc4)c(=O)[nH]c3=O)N2)cc1,"inconclusive: 0.891 µM [inhibitor, full curve]",
COc1ccc(/C=N/NC(=O)C(=O)/C=C2\NC3(CCCC3)Cc3ccccc32)cc1,,inactive: -8.85%
CCCCC#Cc1ccccc1CC(=O)Nc1ccccc1,"inconclusive: 39.8 µM [inhibitor, single point]",
CN1CC2(Cc3c1ccc1ccccc31)C(=O)OC(C)(C)OC2=O,"inconclusive: 28.2 µM [inhibitor, partial curve]",
COCCN(CCOC)c1nc(C)nc2c1nc(-c1ccccc1)n2CCN1CCOCC1,"inconclusive: 6.31 µM [inhibitor, single point]",
COc1ccc(Br)cc1/C=N/N1CCN(Cc2ccccc2)CC1,,inactive: -3.11%
COc1ccc2c(c1)c1ncn(Cc3ccccn3)c(=O)c1n2C,"inconclusive: 28.2 µM [inhibitor, partial curve]",
c1ccc2nc(C3=NCCN3)ccc2c1,"inconclusive: 31.6 µM [inhibitor, partial curve] and inconclusive: 35.5 µM [inhibitor, single point]",
CCCC(=O)Nc1cccc(-c2nc3ccccc3c(=O)o2)c1,"inconclusive: 31.6 µM [inhibitor, partial curve]",
